Results taken from PMC9911399, “Two distinct binding modes provide the RNA-binding protein RbFox with extraordinary sequence specificity”.
Where a chain is given by its changes, count along the chain named. The list shows a part of the results.

T1: RBFOX1 RRM (Homo sapiens, UniProt Q9NWB1 109-208)
T1 sequence: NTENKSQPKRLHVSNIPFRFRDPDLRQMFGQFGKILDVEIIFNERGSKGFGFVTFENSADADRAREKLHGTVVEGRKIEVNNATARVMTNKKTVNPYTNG

B1: CGUUCCC (DNA:RNA)
RNA: GGGAGACCGGAAUUCAGAUUGUCCCGUUCCCUUAAAUCCCGUCGUAGCCACCA
DNA 1: CAATCTGAATTCCGGTCTCCC
DNA 2: TGGTGGCTACGACGGGATT
B2: CGACGGU (DNA:RNA)
RNA: B1 RNA with U27A, U28C, C29G, C30G, C31U
DNA 1: CAATCTGAATTCCGGTCTCCC
DNA 2: TGGTGGCTACGACGGGATT
B3: AACAACU (DNA:RNA)
RNA: B1 RNA with C25A, G26A, U27C, U28A, C29A, C31U
DNA 1: CAATCTGAATTCCGGTCTCCC
DNA 2: TGGTGGCTACGACGGGATT
B4: GCAGACU (DNA:RNA)
RNA: B1 RNA with C25G, G26C, U27A, U28G, C29A, C31U
DNA 1: CAATCTGAATTCCGGTCTCCC
DNA 2: TGGTGGCTACGACGGGATT
B5: UGGGAAG (DNA:RNA)
RNA: B1 RNA with C25U, U27G, U28G, C29A, C30A, C31G
DNA 1: CAATCTGAATTCCGGTCTCCC
DNA 2: TGGTGGCTACGACGGGATT
B6: GUAAUUA (DNA:RNA)
RNA: GGGAGACCGGAAUUCAGAUUGUCCGUAAUUAUUAAAUCCCGUCGUAGCCACCA
DNA 1: CAATCTGAATTCCGGTCTCCC
DNA 2: TGGTGGCTACGACGGGATT
B7: AAAUUUG (DNA:RNA)
RNA: B6 RNA with G25A, U26A, A28U, A31G
DNA 1: CAATCTGAATTCCGGTCTCCC
DNA 2: TGGTGGCTACGACGGGATT
B8: ACCAUUU (DNA:RNA)
RNA: B6 RNA with G25A, U26C, A27C, A31U
DNA 1: CAATCTGAATTCCGGTCTCCC
DNA 2: TGGTGGCTACGACGGGATT
B9: GCCAGGA (DNA:RNA)
RNA: B6 RNA with U26C, A27C, U29G, U30G
DNA 1: CAATCTGAATTCCGGTCTCCC
DNA 2: TGGTGGCTACGACGGGATT
B10: UCUUGUG (DNA:RNA)
RNA: B1 RNA with C25U, G26C, C29G, C30U, C31G
DNA 1: CAATCTGAATTCCGGTCTCCC
DNA 2: TGGTGGCTACGACGGGATT
B11: AGAGCUG (DNA:RNA)
RNA: B1 RNA with C25A, U27A, U28G, C30U, C31G
DNA 1: CAATCTGAATTCCGGTCTCCC
DNA 2: TGGTGGCTACGACGGGATT
B12: ACAUAUG (DNA:RNA)
RNA: B6 RNA with G25A, U26C, A28U, U29A, A31G
DNA 1: CAATCTGAATTCCGGTCTCCC
DNA 2: TGGTGGCTACGACGGGATT
B13: UUCUCCG (DNA:RNA)
RNA: B1 RNA with C25U, G26U, U27C, C31G
DNA 1: CAATCTGAATTCCGGTCTCCC
DNA 2: TGGTGGCTACGACGGGATT
B14: GAGUGGG (DNA:RNA)
RNA: B1 RNA with C25G, G26A, U27G, C29G, C30G, C31G
DNA 1: CAATCTGAATTCCGGTCTCCC
DNA 2: TGGTGGCTACGACGGGATT
B15: CAGUCUU (DNA:RNA)
RNA: B1 RNA with G26A, U27G, C30U, C31U
DNA 1: CAATCTGAATTCCGGTCTCCC
DNA 2: TGGTGGCTACGACGGGATT
B16: AAACCUC (DNA:RNA)
RNA: B1 RNA with C25A, G26A, U27A, U28C, C30U
DNA 1: CAATCTGAATTCCGGTCTCCC
DNA 2: TGGTGGCTACGACGGGATT
B17: CGAGUUC (DNA:RNA)
RNA: B1 RNA with U27A, U28G, C29U, C30U
DNA 1: CAATCTGAATTCCGGTCTCCC
DNA 2: TGGTGGCTACGACGGGATT
B18: UCUGAAC (DNA:RNA)
RNA: B1 RNA with C25U, G26C, U28G, C29A, C30A
DNA 1: CAATCTGAATTCCGGTCTCCC
DNA 2: TGGTGGCTACGACGGGATT
B19: CUCAGUA (DNA:RNA)
RNA: B6 RNA with G25C, A27C, U29G
DNA 1: CAATCTGAATTCCGGTCTCCC
DNA 2: TGGTGGCTACGACGGGATT
B20: AUCUCCA (DNA:RNA)
RNA: B1 RNA with C25A, G26U, U27C, C31A
DNA 1: CAATCTGAATTCCGGTCTCCC
DNA 2: TGGTGGCTACGACGGGATT
B21: AAAGCGC (DNA:RNA)
RNA: B1 RNA with C25A, G26A, U27A, U28G, C30G
DNA 1: CAATCTGAATTCCGGTCTCCC
DNA 2: TGGTGGCTACGACGGGATT
B22: GGUGUAU (DNA:RNA)
RNA: B1 RNA with C25G, U28G, C29U, C30A, C31U
DNA 1: CAATCTGAATTCCGGTCTCCC
DNA 2: TGGTGGCTACGACGGGATT
B23: CACGUUC (DNA:RNA)
RNA: B1 RNA with G26A, U27C, U28G, C29U, C30U
DNA 1: CAATCTGAATTCCGGTCTCCC
DNA 2: TGGTGGCTACGACGGGATT
B24: CGGACCU (DNA:RNA)
RNA: B1 RNA with U27G, U28A, C31U
DNA 1: CAATCTGAATTCCGGTCTCCC
DNA 2: TGGTGGCTACGACGGGATT
B25: GCCCGUU (DNA:RNA)
RNA: B6 RNA with U26C, A27C, A28C, U29G, A31U
DNA 1: CAATCTGAATTCCGGTCTCCC
DNA 2: TGGTGGCTACGACGGGATT
B26: GCUAUUC (DNA:RNA)
RNA: B6 RNA with U26C, A27U, A31C
DNA 1: CAATCTGAATTCCGGTCTCCC
DNA 2: TGGTGGCTACGACGGGATT
B27: GUACCAG (DNA:RNA)
RNA: B6 RNA with A28C, U29C, U30A, A31G
DNA 1: CAATCTGAATTCCGGTCTCCC
DNA 2: TGGTGGCTACGACGGGATT
B28: GAGCGAG (DNA:RNA)
RNA: B6 RNA with U26A, A27G, A28C, U29G, U30A, A31G
DNA 1: CAATCTGAATTCCGGTCTCCC
DNA 2: TGGTGGCTACGACGGGATT
B29: GUGCGAU (DNA:RNA)
RNA: B6 RNA with A27G, A28C, U29G, U30A, A31U
DNA 1: CAATCTGAATTCCGGTCTCCC
DNA 2: TGGTGGCTACGACGGGATT
B30: GUUUGUA (DNA:RNA)
RNA: B6 RNA with A27U, A28U, U29G
DNA 1: CAATCTGAATTCCGGTCTCCC
DNA 2: TGGTGGCTACGACGGGATT
B31: AACGGGC (DNA:RNA)
RNA: B1 RNA with C25A, G26A, U27C, U28G, C29G, C30G
DNA 1: CAATCTGAATTCCGGTCTCCC
DNA 2: TGGTGGCTACGACGGGATT

What follows are binders tested against T1, RBFOX1 RRM (assay: EMSA; HiTS-Eq, 1 nM pool, 10 min; buffer printed only for the single-RNA assays: 10 mM Tris pH 7.5, 150 mM NaCl, 3.4 mM EDTA, 0.001% NP-40, 30 C). Conditions: tags: His6 N-terminal (pET28a); label: 5' 32P.
How it was run: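 Relative association constants, normalised to the cognate motif, were derived by comparing read counts of each RNA species with those of the control reaction. The RNA sequenced was the free fraction, separated by 8% native PAGE after a 10 min equilibration in 50 µL of 1 nM 5′-radiolabelled RNA (7 randomized nucleotides) with increasing concentrations of purified wild-type or mutant RbFox RRM.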

Row | Binder | binding signal
1 | B1 | 0.00758 KA relative to UGCAUGU
2 | B2 | 0.0141 KA relative to UGCAUGU
3 | B3 | 0.00134 KA relative to UGCAUGU
4 | B4 | 0.00947 KA relative to UGCAUGU
5 | B5 | 0.0374 KA relative to UGCAUGU
6 | B6 | 0.00398 KA relative to UGCAUGU
7 | B7 | 0.0123 KA relative to UGCAUGU
8 | B8 | 0.00156 KA relative to UGCAUGU
9 | B9 | 0.0155 KA relative to UGCAUGU
10 | B10 | 0.0192 KA relative to UGCAUGU
11 | B11 | 0.0152 KA relative to UGCAUGU
12 | B12 | 0.00418 KA relative to UGCAUGU
13 | B13 | 0.00959 KA relative to UGCAUGU
14 | B14 | 0.0138 KA relative to UGCAUGU
15 | B15 | 0.00559 KA relative to UGCAUGU
16 | B16 | 0.000431 KA relative to UGCAUGU

Row | Binder | binding signal
17 | B17 | 0.00838 KA relative to UGCAUGU
18 | B18 | 0.0072 KA relative to UGCAUGU
19 | B19 | 0.00379 KA relative to UGCAUGU
20 | B20 | 0.00423 KA relative to UGCAUGU
21 | B21 | 0.00526 KA relative to UGCAUGU
22 | B22 | 0.00821 KA relative to UGCAUGU
23 | B23 | 0.00687 KA relative to UGCAUGU
24 | B24 | 0.0174 KA relative to UGCAUGU
25 | B25 | 0.0139 KA relative to UGCAUGU
26 | B26 | 0.00993 KA relative to UGCAUGU
27 | B27 | 0.00651 KA relative to UGCAUGU
28 | B28 | 0.0115 KA relative to UGCAUGU
29 | B29 | 0.0159 KA relative to UGCAUGU
30 | B30 | 0.0113 KA relative to UGCAUGU
31 | B31 | 0.0153 KA relative to UGCAUGU
